Assay results reported in the supplement of paper PMC8728848.
This is one part of the list.

Tests used:
Assay in all cases: glycan array binding signal (z-score within array); higher = stronger binding
Details in all cases: glycan notation: IUPAC condensed, linker removed
[1] = molecular target: Neu5Ac(a2-3)Gal(b1-3)GalNAc(b1-4)[Neu5Ac(a2-8)Neu5Ac(a2-3)]Gal(b1-4)Glc
How it was run: (§1)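 The binding signal is a Z-score computed within each array. Data were drawn from 3228 arrays in the Consortium for Functional Glycomics database, restricted to those with a known protein sequence. Scores were averaged over arrays of the same protein sequence at different concentrations or buffers, and over linkers, and negative values can be taken as non-binding.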

[2] = molecular target: Neu5Ac(a2-3)Gal(b1-3)GalNAc6S
How it was run: as §1

[3] = molecular target: Neu5Ac(a2-3)Gal(b1-3)GlcNAc
How it was run: as §1

[4] = molecular target: Neu5Ac(a2-3)Gal(b1-3)GlcNAc(b1-2)Man(a1-3)[Neu5Ac(a2-3)Gal(b1-3)GlcNAc(b1-2)Man(a1-6)]Man(b1-4)GlcNAc(b1-4)GlcNAc
How it was run: as §1

[5] = molecular target: Neu5Ac(a2-3)Gal(b1-3)GlcNAc(b1-3)Gal(b1-3)GlcNAc
How it was run: as §1

[6] = molecular target: Neu5Ac(a2-3)Gal(b1-3)GlcNAc(b1-3)Gal(b1-4)GlcNAc
How it was run: as §1

[7] = molecular target: Neu5Ac(a2-3)Gal(b1-3)GlcNAc(b1-3)GalNAc
How it was run: as §1

[8] = molecular target: Neu5Ac(a2-3)Gal(b1-3)GlcNAc6S
How it was run: as §1

[9] = molecular target: Neu5Ac(a2-3)Gal(b1-3)[Fuc(a1-4)]GlcNAc
How it was run: as §1

[10] = molecular target: Neu5Ac(a2-3)Gal(b1-3)[Fuc(a1-4)]GlcNAc(b1-3)Gal(b1-3)[Fuc(a1-4)]GlcNAc
How it was run: as §1

[11] = molecular target: Neu5Ac(a2-3)Gal(b1-3)[Fuc(a1-4)]GlcNAc(b1-3)Gal(b1-4)[Fuc(a1-3)]GlcNAc
How it was run: as §1

[12] = molecular target: Neu5Ac(a2-3)Gal(b1-3)[Neu5Ac(a2-3)Gal(b1-4)]GlcNAc
How it was run: as §1

[13] = molecular target: Neu5Ac(a2-3)Gal(b1-3)[Neu5Ac(a2-6)]GalNAc
How it was run: as §1

Neu5Ac(a2-3)Gal(b1-4)Glc = molecular target: Neu5Ac(a2-3)Gal(b1-4)Glc
How it was run: as §1

[14] = molecular target: Neu5Ac(a2-3)Gal(b1-4)GlcNAc
How it was run: as §1

[15] = molecular target: Neu5Ac(a2-3)Gal(b1-4)GlcNAc(b1-2)Man(a1-3)[GlcNAc(b1-2)Man(b1-4)GlcNAc(b1-2)Man(a1-6)]Man(b1-4)GlcNAc(b1-4)GlcNAc
How it was run: as §1

[16] = molecular target: Neu5Ac(a2-3)Gal(b1-4)GlcNAc(b1-2)Man(a1-3)[Neu5Ac(a2-6)Gal(b1-4)GlcNAc(b1-2)Man(a1-6)]Man(b1-4)GlcNAc(b1-4)GlcNAc
How it was run: as §1

[17] = molecular target: Neu5Ac(a2-3)Gal(b1-4)GlcNAc(b1-3)Gal
How it was run: as §1

[18] = molecular target: Neu5Ac(a2-3)Gal(b1-4)GlcNAc(b1-3)Gal(b1-3)GlcNAc
How it was run: as §1

[19] = molecular target: Neu5Ac(a2-3)Gal(b1-4)GlcNAc(b1-3)Gal(b1-4)GlcNAc
How it was run: as §1

[20] = molecular target: Neu5Ac(a2-3)Gal(b1-4)GlcNAc(b1-3)Gal(b1-4)GlcNAc(b1-3)Gal(b1-4)GlcNAc
How it was run: as §1

[21] = molecular target: Neu5Ac(a2-3)Gal(b1-4)GlcNAc(b1-3)Gal(b1-4)[Fuc(a1-3)]GlcNAc
How it was run: as §1

[22] = molecular target: Neu5Ac(a2-3)Gal(b1-4)GlcNAc(b1-3)GalNAc
How it was run: as §1

[23] = molecular target: Neu5Ac(a2-3)Gal(b1-4)GlcNAc(b1-6)[Gal(b1-3)]GalNAc
How it was run: as §1

[24] = molecular target: Neu5Ac(a2-3)Gal(b1-4)GlcNAc(b1-6)[Neu5Ac(a2-3)Gal(b1-3)]GalNAc
How it was run: as §1

[25] = molecular target: Neu5Ac(a2-3)Gal(b1-4)GlcNAc6S
How it was run: as §1

[26] = molecular target: Neu5Ac(a2-3)Gal(b1-4)[Fuc(a1-3)]GlcNAc
How it was run: as §1

[27] = molecular target: Neu5Ac(a2-3)Gal(b1-4)[Fuc(a1-3)]GlcNAc(b1-3)Gal
How it was run: as §1

[28] = molecular target: Neu5Ac(a2-3)Gal(b1-4)[Fuc(a1-3)]GlcNAc(b1-3)Gal(b1-4)GlcNAc
How it was run: as §1

[29] = molecular target: Neu5Ac(a2-3)Gal(b1-4)[Fuc(a1-3)]GlcNAc(b1-3)Gal(b1-4)[Fuc(a1-3)]GlcNAc(b1-3)Gal(b1-4)[Fuc(a1-3)]GlcNAc
How it was run: as §1

[30] = molecular target: Neu5Ac(a2-3)Gal(b1-4)[Fuc(a1-3)]GlcNAc(b1-3)GalNAc
How it was run: as §1

[31] = molecular target: Neu5Ac(a2-3)Gal(b1-4)[Fuc(a1-3)]GlcNAc(b1-6)[Gal(b1-3)]GalNAc
How it was run: as §1

[32] = molecular target: Neu5Ac(a2-3)Gal(b1-4)[Fuc(a1-3)]GlcNAc(b1-6)[Neu5Ac(a2-3)Gal(b1-3)]GalNAc
How it was run: as §1

[33] = molecular target: Neu5Ac(a2-3)Gal(b1-4)[Fuc(a1-3)]GlcNAc6S
How it was run: as §1

[34] = molecular target: Neu5Ac(a2-3)Gal6S(b1-4)GlcNAc
How it was run: as §1

[35] = molecular target: Neu5Ac(a2-3)Gal6S(b1-4)[Fuc(a1-3)]GlcNAc
How it was run: as §1

Neu5Ac(a2-3)GalNAc = molecular target: Neu5Ac(a2-3)GalNAc
How it was run: as §1

[36] = molecular target: Neu5Ac(a2-3)GalNAc(b1-4)GlcNAc
How it was run: as §1

[37] = molecular target: Neu5Ac(a2-3)[GalNAc(b1-4)]Gal(b1-4)Glc
How it was run: as §1

[38] = molecular target: Neu5Ac(a2-3)[GalNAc(b1-4)]Gal(b1-4)GlcNAc
How it was run: as §1

[39] = molecular target: Neu5Ac(a2-3)[GalNAc(b1-4)]Gal(b1-4)GlcNAc(b1-3)GalNAc
How it was run: as §1

[40] = molecular target: Neu5Ac(a2-3)[Neu5Ac(a2-6)]GalNAc
How it was run: as §1

Neu5Ac(a2-6)Gal = molecular target: Neu5Ac(a2-6)Gal
How it was run: as §1

B1: Gal 3 (Canis lupus) (protein)
chain: MADSFSLNDALSGSGNPNPQGWPGPWGNQPAGAGGYPGASYPGAYPGQAPPGGYPGQAPPGGYPGQAPPGGYPGQAPPGGYPGQAPPGGYPGQAPPGTYPGPTAPAYPGPTAPGTQPGQPSGPGAYPPPGQPSAPGAYPAAGPFGIPAGPLTVPYDLPLPGGVKPRMLITILGTVRPSANRLALDFKRGNDVAFHFNPRFNEDNKRVIVCNTKLDNIWGKEERQAAFPFESGKPFKIQVLVESDHFKVAVNDAHLLQYNHRMKNLPEISKLGISGDIDLTSASYAMI
With B1 the “glycan array binding signal (z-score)” value [1] was -0.133, the “glycan array binding signal (z-score)” value [2] was -0.27 and the “glycan array binding signal (z-score)” value [3] was -0.175. For the same binder, the “glycan array binding signal (z-score)” value [4] was -0.199, the “glycan array binding signal (z-score)” value [5] was 0.657 and the “glycan array binding signal (z-score)” value [6] was 0.787. The “glycan array binding signal (z-score)” value [7] was -0.142, the “glycan array binding signal (z-score)” value [8] was -0.252 and the “glycan array binding signal (z-score)” value [9] was -0.266. For the same binder, the “glycan array binding signal (z-score)” value [10] was -0.23, the “glycan array binding signal (z-score)” value [11] was -0.244 and the “glycan array binding signal (z-score)” value [12] was -0.256. For the same binder, the “glycan array binding signal (z-score)” value [13] was -0.204, the “glycan array binding signal (z-score)” value (Neu5Ac(a2-3)Gal(b1-4)Glc) was -0.247 and the “glycan array binding signal (z-score)” value [14] was -0.162. For the same binder, the “glycan array binding signal (z-score)” value [15] was 0.428, the “glycan array binding signal (z-score)” value [16] was 0.264 and the “glycan array binding signal (z-score)” value [17] was -0.155. For the same binder, the “glycan array binding signal (z-score)” value [18] was 0.001, the “glycan array binding signal (z-score)” value [19] was 0.679 and the “glycan array binding signal (z-score)” value [20] was 1.2. For the same binder, the “glycan array binding signal (z-score)” value [21] was -0.247, the “glycan array binding signal (z-score)” value [22] was -0.205 and the “glycan array binding signal (z-score)” value [23] was -0.247. For the same binder, the “glycan array binding signal (z-score)” value [24] was -0.233, the “glycan array binding signal (z-score)” value [25] was 0.203 and the “glycan array binding signal (z-score)” value [26] was -0.252. The “glycan array binding signal (z-score)” value [27] was -0.265, the “glycan array binding signal (z-score)” value [28] was -0.137 and the “glycan array binding signal (z-score)” value [29] was -0.252. The “glycan array binding signal (z-score)” value [30] was -0.103, the “glycan array binding signal (z-score)” value [31] was -0.16 and the “glycan array binding signal (z-score)” value [32] was -0.209. The “glycan array binding signal (z-score)” value [33] was -0.258, the “glycan array binding signal (z-score)” value [34] was -0.268 and the “glycan array binding signal (z-score)” value [35] was -0.259. The “glycan array binding signal (z-score)” value (Neu5Ac(a2-3)GalNAc) was -0.269, the “glycan array binding signal (z-score)” value [36] was -0.195 and the “glycan array binding signal (z-score)” value [37] was -0.259. The “glycan array binding signal (z-score)” value [38] was -0.251, the “glycan array binding signal (z-score)” value [39] was -0.26 and the “glycan array binding signal (z-score)” value [40] was -0.261. The “glycan array binding signal (z-score)” value (Neu5Ac(a2-6)Gal) was -0.253.
